Source: publication PMC4336329 (PLoS ONE, 2015)
About 14,000 (4.5%) of roughly 310,000 compounds showed an effect of 50% or more. Effects have a minus sign here. Some of the results follow.

Molecular target: human ether-à-go-go-related gene (hERG) potassium channel (human, UniProt Q12809)
Test: primary screen, population patch clamp on CHO cells stably expressing hERG
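Also: peak tail current of the secondary pulse compared with the same well before compound.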

Sequence of human ether-à-go-go-related gene (hERG) potassium channel (Q12809 whole entry, looked up): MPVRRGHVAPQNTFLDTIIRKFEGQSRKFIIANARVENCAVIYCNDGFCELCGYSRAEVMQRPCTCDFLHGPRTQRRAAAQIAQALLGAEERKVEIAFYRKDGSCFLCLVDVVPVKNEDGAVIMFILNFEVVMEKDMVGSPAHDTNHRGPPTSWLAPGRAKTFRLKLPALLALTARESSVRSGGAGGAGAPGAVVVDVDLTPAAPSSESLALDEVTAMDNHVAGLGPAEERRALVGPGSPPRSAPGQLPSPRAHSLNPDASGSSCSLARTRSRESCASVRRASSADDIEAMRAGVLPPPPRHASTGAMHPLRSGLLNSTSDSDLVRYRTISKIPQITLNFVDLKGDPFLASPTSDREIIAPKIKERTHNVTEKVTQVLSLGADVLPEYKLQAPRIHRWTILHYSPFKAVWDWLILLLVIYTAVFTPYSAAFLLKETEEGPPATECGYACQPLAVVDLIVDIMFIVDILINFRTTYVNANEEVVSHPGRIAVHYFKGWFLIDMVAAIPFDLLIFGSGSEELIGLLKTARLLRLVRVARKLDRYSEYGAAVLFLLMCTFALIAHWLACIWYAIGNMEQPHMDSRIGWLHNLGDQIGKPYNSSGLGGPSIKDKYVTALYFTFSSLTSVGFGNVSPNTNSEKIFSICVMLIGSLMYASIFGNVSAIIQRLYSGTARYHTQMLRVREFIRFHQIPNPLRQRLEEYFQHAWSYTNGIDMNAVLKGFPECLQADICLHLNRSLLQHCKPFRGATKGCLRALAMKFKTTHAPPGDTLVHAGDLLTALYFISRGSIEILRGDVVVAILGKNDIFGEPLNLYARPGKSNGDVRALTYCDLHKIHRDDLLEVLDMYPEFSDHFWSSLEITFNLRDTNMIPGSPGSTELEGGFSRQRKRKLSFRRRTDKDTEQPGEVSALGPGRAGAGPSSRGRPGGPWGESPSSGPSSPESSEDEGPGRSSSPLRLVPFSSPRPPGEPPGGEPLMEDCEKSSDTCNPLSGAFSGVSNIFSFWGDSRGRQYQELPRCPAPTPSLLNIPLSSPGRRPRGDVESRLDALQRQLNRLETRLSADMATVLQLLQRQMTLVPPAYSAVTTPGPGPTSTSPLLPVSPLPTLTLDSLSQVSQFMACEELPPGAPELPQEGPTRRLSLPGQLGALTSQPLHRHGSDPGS

Structure (SMILES)	hERG current change (%, negative = inhibition) at 10uM
CCCCNC(=O)CCCCC(=O)N/N=C/c1ccccc1Cl	1.26%
CCN1C=CC(=C2C(=O)c3ccccc3C2=O)C=C1	-12.6%
Nc1nc2n(n1)C(=O)CC(c1ccc(Cl)cc1)N2 (stereo not shown)	-15%
O=C(NCc1nnc(SCc2ccc(C(F)(F)F)cc2)n1-c1ccccc1)C12CC3CC(CC(C3)C1)C2	-1.48%
CCOc1cc(/C=C2\CN(CC)C/C(=C\c3ccc(O)c(OCC)c3)C2=O)ccc1O.Cl	-38.9%
O=C(CCn1c(=O)oc2ccccc21)Nc1cccc(Cl)c1	-2.8%
COc1cccc2cc(C(=O)NCc3ccco3)c(=Nc3ccc(C(=O)O)cc3)oc12	-19.6%
CC(OC(=O)CCCN=C1NS(=O)(=O)c2ccccc21)C(=O)Nc1ccccc1[N+](=O)[O-] (stereo not shown)	-10.8%
CC1(C)CC(=O)C2=C(C1)NC(SCC(N)=O)=C(C#N)C21CCCCC1	12.3%
COc1cccc(N2CCN(Cc3ccsc3)CC2)c1	-33.1%
COC(=O)Nc1ccc(N=C(N)N[N+](=O)[O-])cc1	15.4%
CN1CCN(C(=O)C2=C[C@@H](C3CC3)C[C@@H](OCc3ccc(CO)cc3)O2)CC1	16.5%
CCOc1ccc2ccccc2c1C(=O)N[C@@H]1C(=O)N2[C@@H]1SC(C)(C)[C@@H]2C(=O)[O-].[Na+]	11.4%
COc1cc2c(cc1OC)C1(CCCC1)CNC2c1cccc([N+](=O)[O-])c1 (stereo not shown)	-43.3%
O=C(Oc1ccc2ccccc2c1Cl)N1CCCC1	-17.4%
O=C(O)CNS(=O)(=O)c1cc(Cl)c(Cl)cc1Cl	6.77%
CCOC(=O)C1CCCN(C(=O)c2sc3nc(C)nc(N4CCOCC4)c3c2C)C1 (stereo not shown)	-3.42%
CCC(=O)N1CCc2cc(S(=O)(=O)CCC(=O)NCCc3ccc(S(N)(=O)=O)cc3)ccc21	13.5%
Cc1ccc2c(CN3CCN(Cc4ccc5c(c4)OCO5)CC3)cc(=O)oc2c1C	-35.8%
CCC(C)[C@H](NS(=O)(=O)c1ccc(C)cc1)C(=O)N1CCC(C(=O)N[C@H](C(=O)O)c2ccccc2)CC1 (stereo partly shown)	12.9%
COCCn1c(C)cc(/C=C2/NC(=O)N(c3ccc(Cl)cc3)C2=O)c1C	8.34%
O=C(NNc1cccc(Cl)n1)Nc1ccccc1	2.72%

Structure (SMILES)	hERG current change (%, negative = inhibition) at 10uM
CCN(c1cccc2ccccc12)S(=O)(=O)c1ccc(Cl)nc1	-6.6%
Cc1cccc(NC(=O)CSc2ccc(-c3ccccn3)nn2)c1C	4.13%
CCCCn1c(N)c(N(CCC(C)C)C(=O)c2ccc3c(c2)OCO3)c(=O)[nH]c1=O	9.38%
CC1(c2cc([N+](=O)[O-])cc([N+](=O)[O-])c2)CC(C)(C)N(C(=O)c2ccccc2)c2ccccc21 (stereo not shown)	18.3%
COC1CCCCC1NCCc1ccccc1.O=C(O)C(=O)O (stereo not shown)	-0.725%
Cc1ccc(S(=O)(=O)Nc2nc3ccccc3nc2Nc2cccc(S(=O)(=O)N3CCCC3)c2)cc1	7.97%
Cc1ccc(CNC(=O)CCS(=O)(=O)c2ccc3c(c2)oc(=O)n3C)cc1	12.7%
CCOc1ccc(/C=C2\CCc3ccccc3C2=O)cc1	22.2%
CN1C(=O)C2C3c4ccccc4C(c4ccccc43)[C@@H]2C1=O (stereo partly shown)	15.7%
O=C1NC(=S)SC1=C1CCCCCC1	9.82%
O=c1[nH]c2ccccc2n2cnnc12	16.9%
CCCN(CCC)c1ccc(/C=C/c2ccc3cc(OCC)ccc3n2)cc1	11.1%
COc1ccc(/C=C(\C#N)C(=O)Nc2cc(C)c(Cl)cc2OC)cc1O	1.66%
O=C1CN(C(=O)c2ccccn2)c2ccccc2N1	-5.01%
CCc1ccc(NC(=O)C2CCN(c3c(N4CCCC4)c(=O)c3=O)CC2)cc1	24.7%
O=C(NCCN1CCCCCC1)c1ccc(CS(=O)(=O)c2ccc(Br)cc2)o1	-57.4%
CC1(C)Cc2c(ccc3ccccc23)C(=O)N1	4.89%
CCCN(C(=O)CSc1n[nH]c(-c2ccc(OC)cc2)n1)c1c(N)n(Cc2ccccc2)c(=O)[nH]c1=O	12.1%
CC(NC(=O)C1CCCO1)c1ccccc1 (stereo not shown)	12.6%
Cc1nn(-c2ccccc2)c2sc(-c3n[nH]c(=S)o3)cc12	16.1%
O=C(CC(=O)Nc1cccnc1)Nc1cccnc1	13.4%
